{"source": "PubChem BioAssay AID1346428", "about": "(National Center for Advancing Translational Sciences (NCATS), 2018)", "note": "The whole screen tested about 48,000 compounds, of which about 1,200 (2.5%) were called active. Not shown: some 2% with an inconclusive outcome.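 How the source made its calls: active means activation of at least 60% and not above a set upper limit (about 1 call in 100 departs from these limits); inconclusive means activation of 40% to 60%, or above that upper limit; inactive means activation under 40%.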 This is one part of the list."}
{"molecular_target": "Probable G-protein coupled receptor 32 (Homo sapiens) (UniProt O75388)", "sequence (O75388 whole entry, looked up)": "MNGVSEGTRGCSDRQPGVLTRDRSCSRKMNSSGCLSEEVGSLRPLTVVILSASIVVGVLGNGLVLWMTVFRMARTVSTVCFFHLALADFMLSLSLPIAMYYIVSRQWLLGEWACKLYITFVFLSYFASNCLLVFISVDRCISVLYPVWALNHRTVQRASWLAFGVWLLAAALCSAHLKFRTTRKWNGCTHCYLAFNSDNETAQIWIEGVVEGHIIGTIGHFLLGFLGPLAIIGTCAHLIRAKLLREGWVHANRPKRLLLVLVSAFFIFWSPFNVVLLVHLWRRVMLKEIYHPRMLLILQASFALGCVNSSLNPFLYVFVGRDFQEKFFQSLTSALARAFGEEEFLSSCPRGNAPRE", "assay": "qHTS for Agonists of Human Resolvin D1 Receptor DRV1; further: 0% is about no effect", "settings": "CHO-K1 GPR32 beta-arrestin PathHunter luminescence, 90 min; at 76.9 µM; stronger effect = higher value; zero percent set by DMSO-only wells", "outline": "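Step 1: seed CHO-K1 GPR32 beta-arrestin cells, 2,500/well, overnight at 37 °C. Step 2: add compounds, 90 min at 37 °C. Step 3: detection reagent, 1 h ambient, then luminescence.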"}
{"smiles": "COc1ccc(-c2[nH]c(-c3ccc(OC)c(OC)c3)nc2SCC(=O)Nc2ccccc2)cc1", "activation": "inactive: -33.7%"}
{"smiles": "Cc1ccc(Nc2c(-c3ccc(N(C)C)cc3)nc3ccccn23)cc1", "activation": "inactive: -22.9%"}
{"smiles": "Cn1ccc2cc(S(=O)(=O)N3CCCN(C(=O)Nc4ccc(Br)cc4)CC3)ccc21", "activation": "inactive: 34.5%"}
{"smiles": "C=CCNc1ncnc2ccc(Br)cc12", "activation": "inactive: 4.32%"}
{"smiles": "CCOc1ccccc1C(=O)N(Cc1ccc(N(C)C)cc1)Cc1ccco1", "activation": "inactive: -32.8%"}
{"smiles": "CC(C)c1ccc(C2c3c(-c4ccccc4O)n[nH]c3C(=O)N2CCc2ccccc2)cc1", "note": "(stereo not drawn)", "activation": "inactive: 8.41%"}
{"smiles": "Cc1ccc(-n2ncc3c(NNC(=O)c4ccccc4C)ncnc32)cc1", "activation": "inactive: -10.3%"}
{"smiles": "COc1ccc(-c2c(C)nn3c(N4CCC(C(=O)NCCC(C)C)CC4)cc(C)nc23)cc1OC", "activation": "inactive: 15.3%"}
{"smiles": "CCN(CC)CCn1c(=N)n(CC(O)COc2ccccc2C)c2ccccc21", "note": "(stereo not drawn)", "activation": "inactive: -0.595%"}
{"smiles": "Cc1ccc(Cn2c(=O)c3c(nc4n3CCN4c3cc(C)cc(C)c3)n(C)c2=O)cc1", "activation": "inactive: -5.41%"}
{"smiles": "CCc1ccc(-c2[nH]c3c(c2-c2c(-n4cccc4)n(C)c(=O)n(C)c2=O)c(=O)n(C)c(=O)n3C)cc1", "activation": "inactive: 29.4%"}
{"smiles": "CC(C)CCn1c(SCc2ccc(F)cc2Cl)nc2ccsc2c1=O", "activation": "inactive: 0.55%"}
{"smiles": "CC1=C(C(=O)Nc2ccccc2)C(c2ccc(C(=O)O)cc2)n2nc(SCC(=O)c3ccc(C)cc3)nc2N1", "note": "(stereo not drawn)", "activation": "inactive: 40.4%"}
{"smiles": "COc1ccc(-c2nc(CCNC(=O)c3cc(OC)c(OC)c(OC)c3)cs2)cc1", "activation": "inactive: -4.05%"}
{"smiles": "COCCCNC(=O)c1ccc(NC(=O)N2CCCCc3ccccc32)cc1", "activation": "inactive: -9.05%"}
{"smiles": "C#CC1(O)CC[C@H]2[C@@H]3CCC4=CCCC[C@@H]4[C@H]3CC[C@@]21C", "note": "(stereo partly drawn)", "activation": "active: 105%"}
{"smiles": "COc1ccc(CNC(=O)Cc2c(C)c3c(cc(C)c4c(C)coc43)oc2=O)cc1", "activation": "inactive: -7.4%"}
{"smiles": "COc1ccc(Cl)cc1NC(=O)CCCn1c(=O)c2cccn2c2cccnc21", "activation": "inactive: -12.5%"}
{"smiles": "CCCN1CCN(CC2=C(C(=O)OCC)C(c3ccc(Cl)cc3)NC(=O)N2)CC1", "note": "(stereo not drawn)", "activation": "inactive: -3.63%"}
{"smiles": "CCOC(=O)N1CCc2c(sc(NCc3ccc(OC)c(Br)c3)c2C(=O)Nc2cc(OC)ccc2OC)C1", "activation": "inactive: -8.68%"}
{"smiles": "CCOC(=O)c1ccccc1NC(=O)N(Cc1ccc(C)cc1)Cc1cccn1-c1nnc(N2CCCC2=O)s1", "activation": "inactive: -10.9%"}
{"smiles": "COC(=O)c1c(NC(=O)c2ccc(S(=O)(=O)N3CCCCC3C)cc2)sc2c1CCN(C(C)C)C2", "note": "(stereo not drawn)", "activation": "inactive: -15.1%"}
{"smiles": "CCC(C)n1c(=N)c(S(=O)(=O)c2ccc(C)cc2)cc2c(=O)n3cc(C)ccc3nc21", "note": "(stereo not drawn)", "activation": "inactive: -9.65%"}
{"smiles": "Cc1ccccc1-c1noc(CSc2nnc(Cc3ccccc3)n2-c2ccc(F)cc2)n1", "activation": "inactive: -32.3%"}
{"smiles": "COc1ccc(-c2noc(CSc3nnc(-c4ccncc4)n3-c3ccccc3)n2)cc1", "activation": "inactive: 7.23%"}
{"smiles": "Cc1ccc(CNC(=O)c2c(-c3ccccc3F)noc2C)o1", "activation": "inactive: -18.5%"}
{"smiles": "COc1cccc(NC(=O)Cn2c(=O)n(CCCC(=O)NCc3ccc4c(c3)OCO4)c(=O)c3ccccc32)c1", "activation": "inactive: 0.596%"}
{"smiles": "Cc1ccc2c(c1)c(=O)c1ccccc1n2CCCC(=O)Nc1ccc(F)cc1F", "activation": "inactive: -6.26%"}
{"smiles": "O=C(NC1CC(=O)N(c2ccccc2)C1)C1CCCC1", "note": "(stereo not drawn)", "activation": "inactive: -8.06%"}
{"smiles": "Cc1ccc(CSc2nc(=O)c3c(C)cc(C)nc3n2C2CC2)cc1", "activation": "inactive: 8.18%"}
{"smiles": "CC(Sc1ncc(S(=O)(=O)c2ccc(C(C)C)cc2)c(N)n1)C(=O)Nc1ccccc1", "note": "(stereo not drawn)", "activation": "inactive: 1.46%"}
{"smiles": "COc1ccc(NC(=O)Cn2c(=O)n(-c3ccc(Cl)cc3)c(=O)c3c(C)c(C(=O)N(C)C)sc32)cc1Cl", "activation": "inactive: -15.8%"}
{"smiles": "COC(=O)c1ccc2nc(C)cc(Nc3ccc(O)cc3)c2c1", "activation": "inactive: -1.56%"}
{"smiles": "CCOC(=O)c1cc(-c2ccc(F)cc2)n(CCC(=O)Nc2ccccc2OC)c1C", "activation": "inactive: -22.8%"}
{"smiles": "Cc1cccc(Oc2nc3c(C)cccn3c(=O)c2/C=C(\\C#N)c2nc3ccccc3s2)c1", "activation": "inactive: -2.39%"}
{"smiles": "CCOC(=O)c1ccc(NC(=O)C(=O)NCc2ccco2)cc1", "activation": "inactive: 23.2%"}
{"smiles": "COc1cccc(Cc2nc3ccccc3nc2SCC(=O)N2CCc3ccccc32)c1", "activation": "inactive: -10.8%"}
{"smiles": "COC(=O)c1cc(Cl)c(NC(=O)/C=C/c2ccc(Cl)cc2Cl)cc1OC", "activation": "inactive: 5.37%"}
{"smiles": "CCOC(=O)c1ccc(NC2=CC(c3ccc(Br)cc3)N(c3ccc(C(=O)OCC)cc3)C2=O)cc1", "note": "(stereo not drawn)", "activation": "inactive: -12.1%"}
{"smiles": "Cc1cccc(C2NC(=O)c3c(sc4c3CCN(C)C4)N2)c1O", "note": "(stereo not drawn)", "activation": "inactive: 11.2%"}
{"smiles": "COCCNC(=O)CSc1nnc(-c2ccc(OC)c(OC)c2)c(-c2ccc(OC)c(OC)c2)n1", "activation": "inactive: -20.8%"}
{"smiles": "CCOc1ccc(N2CC(c3nc4ccccc4n3CCCOc3ccc(OC)cc3)CC2=O)cc1", "note": "(stereo not drawn)", "activation": "inactive: 0.858%"}
{"smiles": "O=S(=O)(c1ccccc1)c1nc(-c2cccc(Cl)c2)oc1NCc1ccccc1", "activation": "inactive: 2.56%"}
{"smiles": "COc1ccc(Br)c2c1-c1nc(NC(=O)c3ccccc3SC)sc1C2", "activation": "inactive: -27%"}
{"smiles": "Cc1c(C(=O)NCCN(C)C)oc2c1-c1nn(Cc3ccccc3Cl)cc1CC2", "activation": "inactive: -11.1%"}
{"smiles": "COc1ccccc1-c1c(C)nn2c(N3CCN(c4ccc(Cl)cc4)CC3)cc(C)nc12", "activation": "inactive: -11.8%"}
{"smiles": "CCCCOc1ccc(S(=O)(=O)Nc2cccc(-c3ccc(N4CCOCC4)nn3)c2)cc1", "activation": "inactive: 9.04%"}
{"smiles": "COc1ccc(N(CC(=O)N2CCN(c3cc(C)ccc3C)CC2)S(=O)(=O)c2c(C)noc2C)cc1", "activation": "inactive: -7.34%"}
{"smiles": "CC(Sc1nc(-c2ccccc2)c(C#N)c(=O)[nH]1)C(=O)Nc1ccc(F)cc1", "note": "(stereo not drawn)", "activation": "inactive: 3.33%"}
{"smiles": "CCOC(=O)c1ccc(Nc2nc(C)cc(C)n2)cc1", "activation": "inactive: 5.53%"}
{"smiles": "O=C1CC(c2nc3ccccc3n2CCC2CCCCC2)CN1c1ccccc1Cl", "note": "(stereo not drawn)", "activation": "inactive: -6.47%"}
{"smiles": "Cc1cccc(N2CCN(C(=O)CCCn3c(=O)[nH]c4ccsc4c3=O)CC2)c1C", "activation": "inactive: 19%"}
{"smiles": "CCCCCCc1c(C)c2c(cc(C)c3c(C)c(C)oc32)oc1=O", "activation": "inactive: -3.16%"}
{"smiles": "CC(=O)c1cccc(NC(=O)C2=CC(c3ccc(F)cc3)=NS(=O)(=O)N2C)c1", "activation": "inactive: -8.35%"}
{"smiles": "CCCCN(C(=O)Nc1ccc(Cl)cc1)C1CCN(C(C)=O)CC1", "activation": "inactive: -1.64%"}
{"smiles": "Oc1c(C(c2ccccc2F)N2CCC3(CC2)OCCO3)sc2nc(-c3ccco3)nn12", "note": "(stereo not drawn)", "activation": "inactive: 11.5%"}
{"smiles": "CCN(c1ccc(Cl)cc1)S(=O)(=O)c1nnc(NC(=O)c2ccco2)s1", "activation": "inactive: 26.2%"}
{"smiles": "COc1ccc(OC)c(CNC(=O)c2ccc(Sc3ccc(Cl)cc3)c(NC(C)=O)c2)c1", "activation": "inactive: -11.4%"}
{"smiles": "O=C(NCCc1ccccc1)c1ccc(Cn2c(=O)c3cccn3c3cccnc32)cc1", "activation": "inactive: -20.3%"}
{"smiles": "Cc1ccc2onc(CC(=O)N3CCN(c4ccc(Cl)cc4)CC3)c2c1", "activation": "inactive: -27.5%"}
{"smiles": "O=C(NC1CCCCC1)c1ccc(CSc2nc3ccncc3n2Cc2ccccc2)cc1", "activation": "inactive: 31%"}
{"smiles": "COC(=O)c1cc2oc3ccccc3c2n1CC(=O)Nc1ccc(OC)c(OC)c1", "activation": "inactive: 0.157%"}
{"smiles": "CCN1C(=O)C=CC1=O", "activation": "inactive: 5.21%"}
{"smiles": "Cc1ccc(NC(=O)Cn2c(=O)n(CCCC(=O)NCc3ccc4c(c3)OCO4)c(=O)c3ccccc32)cc1", "activation": "inactive: -12%"}
{"smiles": "CCOc1cc(C2C(C(=O)Nc3ccccc3)=C(C)Nc3ncnn32)cc(Br)c1O", "note": "(stereo not drawn)", "activation": "inactive: 31.7%"}
{"smiles": "COc1ccc(NC(=O)CN2C(=O)CSc3ccc(S(=O)(=O)N(C)C)cc32)cc1OC", "activation": "inactive: -5.63%"}
{"smiles": "Cc1cc2c(cc1S(=O)(=O)N(CCO)Cc1ccccc1)OCC(=O)N2", "activation": "inactive: -9.17%"}
{"smiles": "CCNS(=O)(=O)c1cc(-c2nnc(Nc3cccc(C(F)(F)F)c3)c3ccccc23)ccc1C", "activation": "inactive: -23.4%"}
{"smiles": "O=C(NC(Cc1cc(=O)[nH]c2ccccc12)C(=O)O)c1ccc(Cl)cc1", "note": "(stereo not drawn)", "activation": "inactive: 1.94%"}
{"smiles": "Cc1ccc(NC(=O)Cn2c(CCC(=O)O)ccc2-c2cccs2)cc1Cl", "activation": "inactive: -5.7%"}
{"smiles": "CCc1cccc(CC)c1N(COC)C(=O)Cn1c(CC)nc2ccccc21", "activation": "inactive: -22.1%"}
{"smiles": "Cc1ccc(C)c(NC(=O)CCS(=O)(=O)c2cccc3nsnc23)c1", "activation": "inactive: 3.8%"}
{"smiles": "CCc1ccc2nc(N3CCN(C(=O)c4ccccc4)CC3)sc2c1", "activation": "inactive: 22.9%"}
{"smiles": "Cc1ccc(C)c(N2CCN(C(=O)C3CCN(S(=O)(=O)c4ccc5[nH]c(=O)oc5c4)CC3)CC2)c1", "activation": "inactive: 34.3%"}
{"smiles": "Cn1c(=O)oc2cc(S(=O)(=O)N3CCCC(C(=O)N4CCN(c5ccc(Cl)cc5)CC4)C3)ccc21", "note": "(stereo not drawn)", "activation": "inactive: 0.554%"}
{"smiles": "COCCN(Cc1ccco1)C(=O)c1cc2c(Cl)nc3ccc(C)cc3c2s1", "activation": "inactive: 0.603%"}
{"smiles": "COc1ccc(NC(=O)Cn2nc(SC)c(S(=O)(=O)c3ccc(C)cc3)c2N)cc1OC", "activation": "inactive: 18%"}
{"smiles": "CCN(CC)CCCNC(=O)CSc1nc2nc(C)c(Cc3ccccc3C)c(C)n2n1", "activation": "inactive: -17.8%"}
{"smiles": "O=C(Nc1c(Cl)cccc1Cl)c1cccc2c1C(=O)N(C1CCCCC1)C2", "activation": "inactive: -2.69%"}
{"smiles": "O=C(O)c1ccc2oc(=O)n(Cc3ccccc3)c2c1", "activation": "inactive: -15.9%"}
{"smiles": "COc1ccc(-n2nc(C(=O)NCCCOC(C)C)c3c4ccccc4n(C)c3c2=O)cc1", "activation": "inactive: -3.96%"}
{"smiles": "CCOc1ccc(NC(=O)CC2C(=O)N(c3ccc(F)cc3)C(=O)N2CCc2sccc2C)cc1", "note": "(stereo not drawn)", "activation": "inactive: -32.4%"}
{"smiles": "CCC(=O)N1CCc2cc(Br)cc(S(=O)(=O)CCC(=O)N(C)c3cccc(C)c3)c21", "activation": "inactive: -18%"}
